Measured values published in PubChem BioAssay AID651820 (National Center for Advancing Translational Sciences (NCATS), 2012).
Out of some 340,000 compounds screened, about 12,000 (3.5%) were called active. Inconclusive means that the source gave no clear call. Such entries were picked first, then a sample of the others. Calls follow the shape of the dose curve; as a rule, active = well fitted inhibition curve with a large enough effect; inconclusive = small, poorly fitted or top-dose-only effect, or another doubt; inactive = no such curve, though single readings can be large or run the other way. No potency is given beside an inconclusive call; the fits are too rough.

Assay: qHTS Assay for Inhibitors of Hepatitis C Virus (HCV)
Conditions: Huh7.5.1 HCVcc-Cre (HCVcc is cell-culture hepatitis C virus) infection, luciferase reporter, 44 h; activity change, negative = inhibition: at 41.8 µM (top of the series) unless noted
Outline: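 Reporter virus HCVcc-Cre (~0.5 moi) infects cells exposed to compound; seeding density 1,000 cells/well with 4 h settling beforehand. Luminescence, 15 sec read, taken 44 h post-infection following a 15 min RT substrate incubation.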
% is scaled to controls: 0 for no effect and ±100 for the full control effect; potency is read from the fitted curve at half-maximal effect; tags tell the direction and shape of the fitted curve.

For `CC(=O)c1ccc(N2CCN(C(=O)c3cn(Cc4ccccc4)nc3-c3cccnc3)CC2)c(F)c1`, which Potency is on record?
The Potency was inconclusive [inhibitor, single point].

Which Potency does the source give for `O=C(c1cc(-c2ccco2)on1)N1CCN(C(c2ccccc2)c2ccccc2)CC1` here?
The Potency was active: 2.51 µM.

Which Potency does the source give for `O=C(NCCNC(=O)c1ccccc1O)c1ccccc1O` here?
The Potency was “inactive”.

With `COc1ccc2nc3sc(C(=O)N4CCN(C)CC4)cc3cc2c1` as the compound, how does the Potency read?
Its Potency is “inactive”.

With `CC1Cc2ccccc2N1C(=O)COC(=O)C1(c2ccccc2F)CCCC1` (stereo unspecified) as the compound, how does the Potency read?
The Potency was inconclusive [inhibitor, single point].

With `O=C(Nc1ncc(Cc2cccc(Cl)c2Cl)s1)C1CCCO1` (stereo unspecified) as the compound, how does the Potency read?
Its Potency is “inactive”.

With `Nc1ccc(Cc2nc3c(ccc4ccccc43)[nH]2)cc1` as the compound, how does the Potency read?
The Potency was inconclusive [inhibitor, partial curve].

With `CCOC(=O)c1ccc(NC(=S)N2CCCC(C(=O)OCC)C2)cc1` (stereo unspecified) as the compound, how does the Potency read?
The Potency was inconclusive [inhibitor, partial curve].

With `COc1cccc(CN(C)C(=O)CCN(c2ccccc2)S(=O)(=O)c2ccc(C)cc2)c1OC` as the compound, how does the Potency read?
The Potency was active: 11.2 µM.

For `Cn1cc(/C=C/C(=O)c2ccccc2)c2ccccc21`, which Potency is on record?
Its Potency is inconclusive [inhibitor, single point].

With `CC(C)(C)N1C(=O)Cc2c1nc(N)c1c(N)nc(N3CCCCC3CO)c(C#N)c21` (stereo unspecified) as the compound, how does the Potency read?
Its Potency is inconclusive [inhibitor, single point].

With `Cc1cc2cc(CN(Cc3cccs3)C(=S)NCC3CCCO3)c(=O)[nH]c2cc1C` (stereo unspecified) as the compound, how does the Potency read?
The Potency was inconclusive [inhibitor, partial curve].

Which Potency does the source give for `Cc1nc2ccccn2c1C(=O)CSc1cccc(Cl)c1` here?
Its Potency is inconclusive [inhibitor, single point].

For `CC1CN(C)C(C)C/C1=N/Oc1ccccc1[N+](=O)[O-]` (stereo unspecified), which Potency is on record?
The Potency was inconclusive [inhibitor, partial curve].

With `CC(C)n1cc(/C=C2\NC(=O)N(c3cccc(Cl)c3)C2=O)c2ccccc21` as the compound, how does the Potency read?
The Potency was inconclusive [inhibitor, full curve, poor fit].

For `Cc1cc(Br)c2[nH]cc(CCNC(=O)c3ccco3)c2c1`, which Potency is on record?
The Potency was active: 12.6 µM.

Which Potency does the source give for `O=C(Nc1ccc(N2CCCCC2)c(Cl)c1)c1cccnc1` here?
Its Potency is inconclusive [inhibitor, single point].

Which Potency does the source give for `O=C(/C=C/c1cccs1)Nc1ccc(N2CCOCC2)c(S(=O)(=O)Nc2ccccc2Cl)c1` here?
The Potency was inconclusive [inhibitor, partial curve, poor fit].

For `CCOC(=O)c1cc(NC(=O)c2ccoc2C)cc(C(=O)OCC)c1`, which Potency is on record?
The Potency was inconclusive [inhibitor, single point].

With `CC(=O)c1cnc(SCc2ccc(Cl)cc2)nc1C` as the compound, how does the Potency read?
The Potency was inconclusive [inhibitor, full curve, poor fit].

Which Potency does the source give for `COc1cc(CN2CCN(Cc3ccc(C(F)(F)F)cc3)CC2)cc(OC)c1OC` here?
Its Potency is inconclusive [inhibitor, partial curve].

Which Potency does the source give for `COc1ccc(C(=O)NC(=S)Nc2ccccc2[N+](=O)[O-])cc1OC` here?
Its Potency is inconclusive [inhibitor, partial curve].

With `COc1ccc(S(=O)(=O)N2CCOCC2)cc1NC(=O)C1CCN(S(=O)(=O)c2ccc(Cl)cc2)CC1` as the compound, how does the Potency read?
Its Potency is “inactive”.

With `CC(C)C[C@H](NC(=O)OC(C)(C)C)C(=O)N[C@@H](CO)[C@H](O)[C@@H]1C[C@@H]1C(=O)NC1CC1` as the compound, how does the Potency read?
Its Potency is “inactive”.

With `COc1cccc(CNC(=O)c2cc3oc4ccccc4c3n2C)c1OC` as the compound, how does the Potency read?
The Potency was inconclusive [inhibitor, partial curve].

Which Potency does the source give for `CCO[C@H]1c2c(ccc3ccc(=O)oc23)OC(C)(C)[C@@H]1O` here?
Its Potency is active: 2.82 µM.

For `CCOc1ccccc1NC(=O)CCCNC(=O)c1ccc(Cl)cc1`, which Potency is on record?
Its Potency is inconclusive [inhibitor, partial curve, poor fit].

Which Potency does the source give for `COc1ccccc1CNC(=O)c1cc(C2CC2)nc2c1cnn2C(C)C` here?
The Potency was active: 1 µM.

Which Potency does the source give for `N#Cc1ccccc1OCCn1cncn1` here?
Its Potency is “inactive”.

Which Potency does the source give for `CCN(CC)S(=O)(=O)c1ccc(Cl)c(C(=O)NC(C)C(c2cccs2)N2CCCC2)c1` (stereo unspecified) here?
The Potency was active: 14.1 µM.

With `COc1ccc(CNCCc2c[nH]c3ccccc23)c(OC)c1C` as the compound, how does the Potency read?
Its Potency is inconclusive [inhibitor, single point].

With `O=C(Nc1cccc(-c2cn3ccsc3n2)c1)c1ccccc1` as the compound, how does the Potency read?
Its Potency is active: 25.1 µM.

For `Cc1c(Cl)cccc1NC(=O)CN1CCC(C(O)(c2ccccc2)c2ccccc2)CC1`, which Potency is on record?
The Potency was inconclusive [inhibitor, single point].

With `O=C(CCC(=O)NNc1nc2ccccc2c2nc(-c3ccccc3)nn12)NCCCN1CCOCC1` as the compound, how does the Potency read?
The Potency was “inactive”.

Which Potency does the source give for `COC(=O)c1cncn1C(C)c1ccccc1` (stereo unspecified) here?
Its Potency is inconclusive [inhibitor, single point].

Which Potency does the source give for `O=[N+]([O-])c1cccc(C=NNc2ccc3ccccc3n2)c1O` here?
The Potency was inconclusive [inhibitor, full curve].

For `COC(=O)C1=C(c2cccc(OCc3ccccc3)c2)C[C@@H]2CC[C@H]1N2C(=O)NCCCOC(C)C`, which Potency is on record?
Its Potency is inconclusive [inhibitor, single point].

Which Potency does the source give for `Cc1ccc(S(=O)(=O)N2CC3CCCN3c3ccc(C(F)(F)F)cc32)cc1` (stereo unspecified) here?
Its Potency is inconclusive [inhibitor, single point].

With `Cc1cc(C)n(-c2cc(C(C)(C)C)nc3c(-c4ccc(Cl)cc4)cnn23)n1` as the compound, how does the Potency read?
The Potency was “inactive”.

Which Potency does the source give for `CC(=O)NCCOC(=O)c1nn(Cc2ccccc2)c(=O)c2ccccc12` here?
The Potency was “inactive”.

For `CC1CCCCN1S(=O)(=O)c1ccc(C(=O)Nc2nnc(-c3cccs3)o2)cc1` (stereo unspecified), which Potency is on record?
The Potency was inconclusive [inhibitor, single point].

Which Potency does the source give for `CCSc1ccc([C@@H]2[C@H]3C(=O)N(C)C(=O)[C@H]3[C@]3(C(=O)OC)CCCCN23)cc1` here?
The Potency was inconclusive [inhibitor, single point].

With `COc1cccc(OC)c1C(=O)Nc1cccc(-c2nc3ccccc3[nH]2)c1` as the compound, how does the Potency read?
The Potency was inconclusive [inhibitor, single point].

With `CCn1ncc(Br)c1C(=O)Nc1c(C)nn(Cc2c(F)c(F)c(F)c(F)c2F)c1C` as the compound, how does the Potency read?
The Potency was inconclusive [inhibitor, single point].

With `COc1cc(-c2nc3ccccn3c2NCC2CCCO2)ccc1O` (stereo unspecified) as the compound, how does the Potency read?
The Potency was “inactive”.

Which Potency does the source give for `CC(C)CNC(=O)c1ccccc1NC(=O)CN(c1ccccc1)S(=O)(=O)N(C)C` here?
Its Potency is “inactive”.

Which Potency does the source give for `Cc1ccc2cc(C#N)c(NCCNC(=O)C3CCC3)nc2c1C` here?
The Potency was inconclusive [inhibitor, partial curve, poor fit].

Which Potency does the source give for `Oc1ccc(Nc2ncnc3scc(-c4ccccc4)c23)cc1` here?
Its Potency is active: 8.91 µM.

With `COc1ccc(CN(CCC#N)CCC2(c3ccccc3)CC(C)N(C)CC2C)cc1OC` (stereo unspecified) as the compound, how does the Potency read?
The Potency was “inactive”.

Which Potency does the source give for `CC1CN(C(=O)Nc2ccccc2)c2ccccc2-[n+]2ccsc21` (stereo unspecified) here?
Its Potency is inconclusive [inhibitor, partial curve].

Which Potency does the source give for `Cc1ccc(C(=O)Nc2ccccc2C(=O)NCc2ccccc2)cc1` here?
Its Potency is inconclusive [inhibitor, single point].

Which Potency does the source give for `CCn1nc(C)c(C(=O)Nc2cc(Oc3ccc(Cl)cc3)cc([N+](=O)[O-])c2)c1C` here?
Its Potency is inconclusive [inhibitor, single point].

Which Potency does the source give for `N#C/C(=C\c1c[nH]c2ccccc12)C(N)=O` here?
The Potency was “inactive”.

Which Potency does the source give for `Nc1nc(-c2nc3ccccc3[nH]2)cs1` here?
Its Potency is “inactive”.

For `FC(F)(F)c1cccc(NC(=S)NCC2COc3ccccc3O2)c1` (stereo unspecified), which Potency is on record?
The Potency was inconclusive [inhibitor, single point].

Which Potency does the source give for `CCOC(=O)N1CCN(C(c2ccc(Cl)cc2)c2sc3nc(C)nn3c2O)CC1` (stereo unspecified) here?
Its Potency is “inactive”.

With `CC(C)c1ccc(S(=O)(=O)N2CCN(C(=O)CCNC(=O)Nc3ccccc3)CC2)cc1` as the compound, how does the Potency read?
The Potency was “inactive”.

Which Potency does the source give for `O=C(COc1ccc(S(=O)(=O)NC2CCCCC2)cc1Cl)NCc1ccc2c(c1)OCO2` here?
The Potency was inconclusive [inhibitor, partial curve].

With `O=C(NC1CCCC1)C1CCN(S(=O)(=O)c2ccccc2)CC1` as the compound, how does the Potency read?
Its Potency is “inactive”.

With `CC1Nc2ccccc2C(=O)N1NS(=O)(=O)c1ccccc1` (stereo unspecified) as the compound, how does the Potency read?
The Potency was “inactive”.

For `COc1cccc(NC(=O)Nc2cc(C(=O)O)ccc2C)c1`, which Potency is on record?
The Potency was “inactive”.

With `CCN(C[C@H]1N[C@@](Cc2ccccc2)(C(=O)OC)[C@H]2C(=O)N(Cc3ccccc3)C(=O)[C@@H]12)C(=O)Nc1ccc(C)cc1` as the compound, how does the Potency read?
Its Potency is inconclusive [inhibitor, single point].

For `Cn1c(=O)c2c(ncn2CCOc2ccc(F)cc2)n(C)c1=O`, which Potency is on record?
Its Potency is inconclusive [inhibitor, single point].

Which Potency does the source give for `CC(=O)Nc1cccc(NC(=O)c2cccc(OCc3ccccc3)c2)c1` here?
Its Potency is inconclusive [inhibitor, single point].

Which Potency does the source give for `O=c1c2nccnc2[nH]c(=S)n1Cc1ccccc1` here?
The Potency was inconclusive [inhibitor, single point].

Which activity change, negative = inhibition does the source give for `Cc1ccc2nc(N3C(=O)CNC3=S)sc2c1` here?
The activity change, negative = inhibition was inconclusive: -80.1% [inhibitor].

With `CC1=CC(C)(C)n2c(O)c(N=N)c3c(C)c(C)cc1c32` as the compound, how does the Potency read?
The Potency was inconclusive [inhibitor, single point].

With `Cc1cc(Cl)ccc1OC(C)C(=O)Nc1cnn(CCCC(=O)O)c1` (stereo unspecified) as the compound, how does the Potency read?
The Potency was “inactive”.

With `O=[N+]([O-])c1ccc(Oc2ccc(S(=O)(=O)Nc3ccccc3)cc2)cc1` as the compound, how does the Potency read?
Its Potency is inconclusive [inhibitor, full curve].

Which Potency does the source give for `O=C1C=C(NNC(=O)c2cccnc2)CC(c2ccco2)C1` (stereo unspecified) here?
Its Potency is “inactive”.

Which Potency does the source give for `COc1cc2c(cc1OC)CN(C(=O)CSc1nc(C)cc(C)c1C#N)CC2` here?
Its Potency is inconclusive [inhibitor, single point].
